Experimental findings from the supplement of paper PMC12632987 are described below.

The full ranking holds about 4,500 sequences; the median of “median log2 fold change of GCK-ALFA target abundance (FLAG IP / Myc IP barcode read proportion)” is about 0.078, and the lowest 2% start at about -0.6. The list shows a part of the results.

The chains are these.
B1: GBRAP_26_5458 (protein)
chain: VEEKIDEARDNLEKLAKEVLSPEKAAAVQTEISTESWELEEVVEEHPNDLEKIEKKIKEFEEDVFKTLKELDVPEEEFKKLKEKIEEESEKLKEEAKKKV
B2: GBRAP_52_5900 (protein)
chain: MEEKAKKMAEEVVAAIKAGDFEKAVELIVKVLLEMSSEEVAIFADALRELLKGQSLEEAEKAVKAAEEAEKRALAKGADEDDVTLVVDAAETALVEVELK
B3: GBRAP_43_5749 (protein)
chain: DEELVAGAVEFTLLAAEDPSISPETVLRAFKATLDLIADTGVRLEEELVAAAAAVAKRLSPEQVEALIEHIKELAAASPEVKETFEAAEEVLRAELAKRR
B4: GBRAP_80_6862 (protein)
chain: YEEEVQEALELAKSISEELAELFEELVKELKELGVSEEDIARIARIIKDILELDPELALEALEEMVKEAKEYLKKGKGEEALVVVLGIAGEALMEAEEKE
B5: GBRAP_125_3076 (protein)
chain: PTEEQLEDLALLLRALGFSEDDVAEAVAIAAASSLRQTLVAIMLAEGAEEAADLIEKLTEEQAAEVLRRVAAYLRANPGLSKEEVIAKVKEVAEEALAAA
B6: GBRAP_14_3783 (protein)
chain: MEAIEKAAEESFKELEELLTEIVPEKAEEIRELVEESLKRLKELIKKTGDPVKAAEEVFKELEARVAELTADLPAEKRARALGAVRTEGANLIEEIEELT
B7: GBRAP_160_4364 (protein)
chain: SEELKKLAKEIEELMKEFEEEAKDLSPEEARILGLGVLAEIAALIESNEAVSDEVEDEIMKIIDEAEKEIRENKDASPEEIVEIVKKAVEKIIELIKKEA
B8: GBRAP_166_4929 (protein)
chain: AKEEAVAATREALRATLAAARADPSMTPAQATVALADTLAERLEEIDDEETKLAVVREGLELAKEAGLDPRRLATLTASLAGFDDETRERIDEITEEILA
B9: GBRAP_74_6501 (protein)
chain: AAADEAAAEEFAELLRRGASYEELMAHIAEMNVAALDLAVIKATEEARENAEKLTEEQIDALAELADRVFAESENPEAIAAAGELVKILYETEERRRAEE
B10: GBRAP_43_5744 (protein)
chain: SEELVEGAVDFALLAAEDPAIPEETKLRALKAAAELMADEKVKATELALEAVRAFARRASEETVEELIKYLKELAEKNPEIKEGFDKLIKAAEEEREKRR
B11: GBRAP_52_5865 (protein)
chain: MEERLREALLRMLALVRAGDEEGARALARELVASISEEEVEVLIRVAAALFAELAPADLDAAWRLMEIIAEALEEAGFPEELVTLFEGEVGSAIAKREAA
B12: GBRAP_52_6277 (protein)
chain: MEKEAEELANEFLETTLTKSREEVKEFAKKIVETKSQELIAKMLKIVVEKSKELNLEEVEKILEGFLILEEELDEAGKDTVPAEDAAAEIAALAMKKREA
B13: GBRAP_128_3300 (protein)
chain: MDPALRAEVEALVETIRTGDPAARRAAAEALAALMGSVNDEDAEAIADIIEAAIPELSAEALEILADVLDAARPQLTPEKAALAADVASAALLAAEELAE
B14: GBRAP_57_6452 (protein)
chain: MSKLEKAEKLAEEAKKAVLEEGDKEKALEYIRKMLELLSKESLLDVALIVDPSARRDDSKEELIEKIVEKAKEYLEKGDKEGVLDIIDLILGQQEMEELE
B15: GBRAP_139_3701 (protein)
chain: MSLEEKIARARELTRRTEEDPEGSLEALVELLGSLSEEEAERATEAAAEVWAELPLDRFEELADRLLELAREKIEDEDKVDIIEGVLNGALARHAYAEEL
B16: GBRAP_78_6687 (protein)
chain: EIEEKLEKALEHLGKAAKILAKMNTEEALDILGVVVDAASTVEEALFGEADLEELEKALKELEKALKEVKKIDSPEAKEAAEHLEKAIEALKEAIKLMKE
B17: GBRAP_78_6580 (protein)
chain: EIEEEIDKAKEYLSEAAKLAKKFPEEIQNELLYLIVEALSSLLESEENGFDLEELEKALKYVEEAIKLVEKLDKEEAKKLKKELEKAKEHLEKAIKLKKK
B18: GBRAP_184_5130 (protein)
chain: TLVRRAVEAETAEEAKAAAEAVVAEAAAAGARLDLAVFAKNMSVEEIKELIKYLGALKKAHPQVTITLDVLDELSEEEIDKLVKAADENGVRLVLAISDE
B19: GBRAP_117_2600 (protein)
chain: SEAEKKVKELAKELVELAKEALEKKKTLSEEEAKKLEEETLKKMTELVKEMLSLTSEEEVQEFIAEELKDLSPETRVQIWILFYEALAEAEDEREKEEEE
B20: GBRAP_26_5426 (protein)
chain: IEEIFKEMIDEIEAAADELLDPELAAALRAIAATLAEEVLERVEEENLSVEEIKEELEKMVEELVEEAKELGVDEEKIEKLEKAARKAAEKAVERIEKEK
B21: GBRAP_184_5094 (protein)
chain: KLLEELIEAKTPEEAKEKLKKVLKKAAEQKADLNILVDVEGLDVETAIELLDLVGAALKAGKVKNVTVGFAEEFTEEEIDKILERADELGVKVTVAIKEE
B22: GBRAP_11_2762 (protein)
chain: MKEKYERLAELAERAAELVDRLLAEGVDDAELLAELERLLRELREETKKIGDKALEKDVEIAEELFRALQADPANAEAYARELRAQLRVLAGQYLLLAEE
B23: GBRAP_128_3597 (protein)
chain: SVEEVREWTRATLEEMKTADAAERRALAQALMDRFLTLSREEQEALVETIEELAPELSAEDLEILADAARAARPRADPYAANLLAGLEVDLLNEALEKEE
B24: GBRAP_11_2701 (protein)
chain: KKEELKKAAELAEKLAETLERLLEEGVDNEELRAEAEKLLKELTKLVEKYGDKALQKLAKIIKELWEEALADPENAEAYLREMLAAARVLAGQFLLEIEE
B25: GBRAP_128_3387 (protein)
chain: SQEELVEEAKELIEEIVEADVEEARELARELMELLGKLSLEDAEKVVEYLKEQFPKLTAEKLEVVADVLREQRPKFDPERQNLVADAEVEALNAAEEKEE
B26: GBRAP_52_6341 (protein)
chain: MEEEVERYAREIAAAVAAGDFDRAVALTREAARRFTREEVRRMMRLTAELMAAALPDDEDRVMEAAFKMADVIEEELGDEVLADDFEAYTARLLVERRQA
B27: GBRAP_11_2841 (protein)
chain: SKEKLEELAKRAEAIAKELAALIASGNPSQAQLQALKAKVEALLEEVKKHASKSSQKIAQIALDDINKAIADPEKQQEYLNNALAAVRVLAGDLLLEIEE
B28: GBRAP_52_6244 (protein)
chain: MEERLRKLAAELLALVRAGRLEEARKLAKRIAEELNEEELRLFIDEFAELARQARPEDVDAVWRAAEILAEALEEAGKPEILVDDLEARTARAVAEVLAR
B29: GBRAP_125_3051 (protein)
chain: ALEAAIEALAALARRLGLSEEEVEELAELARRHGVKGALIALLLAEGEEEAAELAAELSEEAVIAVLLELRAWLEAHPDATPEEVLARLLELLKAALAAE

Sequence of GABARAP, O95166 (O95166 whole entry, the tested form may be a part): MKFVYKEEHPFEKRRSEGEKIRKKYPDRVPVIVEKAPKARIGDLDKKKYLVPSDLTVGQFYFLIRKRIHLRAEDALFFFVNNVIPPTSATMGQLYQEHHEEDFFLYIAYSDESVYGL

The test deals with GABARAP, O95166. Description: median log2 fold change of GCK-ALFA target abundance (FLAG IP / Myc IP barcode read proportion) (log2 ratio); each designed protein is fused to an ALFA-tag nanobody in HEK293 cells to bring the named protein to FLAG-tagged glucokinase (GCK); Myc marks an untargeted standard; higher = target protein stabilised (more abundant). Particulars: target protein: 3xFLAG-MCP-GCK-ALFA reporter; HEK293 landing pad (RPLP). The method, boiled down:
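Binders fused to an ALFA nanobody were recombined as a library into HEK293 landing-pad cells, which were induced with 2 μg mL^−1 doxycycline and then transfected to express a FLAG-tagged target and a Myc-tagged standard. After 48 h, circular RNA barcodes recovered by anti-FLAG and anti-Myc immunoprecipitation of lysates were reverse transcribed, amplified and sequenced. Each binder's target abundance is the median log2 ratio of FLAG to Myc barcode read proportions, from barcodes present at ≥10^−7 in both replicates, binders carrying ≥3 barcodes per replicate, a 10^−6 pseudocount and pooled replicates.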
For the molecule B1, the “median log2 fold change” value was -0.0387.
For B2 the value was 0.172; for B3, 0.142.
The value for B4 was 0.161; that for B5 was 0.112.
On to B6, for which the “median log2 fold change” value came to 0.292.
For B7 the value was -0.169.
The value for B8 was 0.327; that for B9 was 0.0485.
The value for B10 was 0.257; that for B11 was -0.0279; that for B12 was 0.236.
On to B13, for which the “median log2 fold change” value was -0.00271.
Regarding B14, the “median log2 fold change” value worked out at 0.213.
For B15, the “median log2 fold change” value worked out at 0.00861.
For B16 the value was 0.0487.
In the case of B17, the “median log2 fold change” value was -0.0492.
For B18 the value was 0.0547.
For B19 the value was 0.362; for B20, 0.219.
For B21 the value was 0.105; for B22, 0.183.
In the case of B23, the “median log2 fold change” value was 0.119.
As for B24, the “median log2 fold change” value is -0.00754.
Turning to B25, the “median log2 fold change” value was 0.209.
For B26 the value was -0.169; for B27, 0.254; for B28, 0.0864.
For B29 the value was -0.101.
